# Results reported in PubChem BioAssay AID1460 (National Center for Advancing Translational Sciences (NCATS), 2008).
# Out of some 270,000 compounds screened, about 5,800 (2.1%) were called active. This list was built around the results that the source calls inconclusive (neither active nor inactive); the mix of calls is not that of the screen. Calls come from the whole dose curve; as a rule, active = well fitted inhibition curve with a large enough effect; inconclusive = small, poorly fitted or top-dose-only effect; inactive = flat fitted curve, though single readings scatter. Where the call is inconclusive, the potency comes from a doubtful curve fit.
# Target: Microtubule-associated protein tau (Homo sapiens) (UniProt P10636)
# Sequence of UniProt P10636 (P10636 whole entry, looked up): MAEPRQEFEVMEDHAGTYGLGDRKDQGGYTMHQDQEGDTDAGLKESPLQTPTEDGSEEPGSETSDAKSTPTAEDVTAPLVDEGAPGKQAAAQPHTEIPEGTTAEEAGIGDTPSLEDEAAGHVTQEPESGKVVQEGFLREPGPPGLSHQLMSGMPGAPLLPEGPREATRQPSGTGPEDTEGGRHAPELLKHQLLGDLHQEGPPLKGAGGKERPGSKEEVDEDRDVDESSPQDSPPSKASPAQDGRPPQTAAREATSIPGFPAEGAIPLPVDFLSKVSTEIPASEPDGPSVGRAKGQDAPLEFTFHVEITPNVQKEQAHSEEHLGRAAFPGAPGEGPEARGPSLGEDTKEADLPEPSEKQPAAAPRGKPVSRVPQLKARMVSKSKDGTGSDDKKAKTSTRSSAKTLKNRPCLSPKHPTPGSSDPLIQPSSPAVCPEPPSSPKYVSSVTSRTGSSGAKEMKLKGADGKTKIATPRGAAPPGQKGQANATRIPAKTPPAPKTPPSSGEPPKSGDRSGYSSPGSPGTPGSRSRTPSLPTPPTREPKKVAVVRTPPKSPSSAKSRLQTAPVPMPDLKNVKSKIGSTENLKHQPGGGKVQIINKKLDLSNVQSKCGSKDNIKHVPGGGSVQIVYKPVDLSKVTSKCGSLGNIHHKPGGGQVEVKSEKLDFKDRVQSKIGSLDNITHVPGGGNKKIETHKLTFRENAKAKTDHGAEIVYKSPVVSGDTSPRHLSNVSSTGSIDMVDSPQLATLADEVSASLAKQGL
# Assay: qHTS for Inhibitors of Tau Fibril Formation, Thioflavin T Binding; note: nearly all actives have a fitted effect of over 55% in size
# Settings: recombinant tau K18 P301L (four-repeat tau fragment), heparin-induced fibrillization, ThT fluorescence; series mostly up to 57.4 µM; activity, negative = inhibition: at the top concentration
# In short: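 Heparin-induced (20 uM) aggregation of recombinant human K18 P301L tau, 15 uM unlabeled with 0.24 uM labeled, pH 7 acetate buffer, 6 hr at 37 C with compound. Fibrils quantified by 30 uM ThT fluorescence after 1 hr ambient incubation.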
# % is set by controls: 0 for no effect and ±100 for the full control effect; potency is the fitted concentration of half-maximal effect; tags give direction and shape of the fitted curve.
Structure (SMILES),"activity, negative = inhibition",Potency
Cc1cc(NC(=O)c2ccc(-c3ccc(Cl)cc3)o2)cc(-c2nc3ncccc3o2)c1O,inactive: -20%,
O=C(Nc1cccc([N+](=O)[O-])c1)c1ccc2ccccc2c1O,,"inconclusive: 4.47 µM [inhibitor, full curve]"
CC1CCCCN1S(=O)(=O)c1ccc(C(=O)Nc2ccccc2-c2nc3ccccc3s2)cc1 (stereo not drawn),inactive: 9.97%,
Oc1ccc(/C=N/Nc2cc(N3CCCC3)nc(N3CCCC3)n2)cc1O,,active: 25.1 µM
CC1CCC/C(=C(\C#N)c2nc(-c3cc4ccccc4oc3=O)cs2)C1 (stereo not drawn),,"inconclusive: 28.2 µM [inhibitor, single point]"
CCN(CC)c1ccc(-c2nn3c(-c4ccccc4OC)nnc3s2)cc1,,"inconclusive: 15.8 µM [inhibitor, partial curve]"
COc1ccc(N=C2NC(=O)/C(=C/c3ccc(O)c(OC)c3)S2)cc1,,active: 3.55 µM
NC[C@@H]1O[C@H](C23CC4CC(CC(C4)C2)C3)Cc2c1ccc(O)c2O,,"inconclusive: 22.4 µM [inhibitor, partial curve] [middle of 4 runs]"
Cc1ccc(SCc2[nH]nc3c2C(c2ccc(C)o2)C(C#N)=C(N)O3)cc1 (stereo not drawn),,active: 14.1 µM
CC(C)Cn1c(-c2ccco2)n[nH]c1=S,inactive: -9.83%,
Cc1cc(NS(=O)(=O)Cc2ccccc2)cc(C)c1OCC(=O)N1CCOCC1,inactive: -6.49%,
COc1ccc(COC(=O)c2[nH]c3c(c2C)C(=O)CC(c2ccc(OC)c(OC)c2)C3)cc1 (stereo not drawn),,"inconclusive: 28.2 µM [inhibitor, partial curve]"
CCOc1cc(C=C(C#N)C#N)ccc1Oc1ccc([N+](=O)[O-])cn1,,"inconclusive: 28.2 µM [inhibitor, partial curve]"
COc1ccc(-n2nc([N+](=O)[O-])c(=NCCC3=CCCCC3)n2O)cc1,,active: 7.94 µM
CC1CCCC(C)N1C(=S)NCc1ccco1 (stereo not drawn),,"inconclusive: 28.2 µM [inhibitor, single point]"
CCOc1ccc(N2C(=O)S/C(=C\c3cccn3C)C2=O)cc1,inactive: -13%,
CC(=O)Oc1ccc2c(=O)c(-c3ccccc3)c(C)oc2c1,,"inconclusive: 20 µM [inhibitor, single point]"
COc1ccc(N2CCN(C(=O)CSc3nnc(Cn4nnc5ccccc54)n3C)CC2)cc1,,"inconclusive: 44.7 µM [inhibitor, partial curve, poor fit]"
O=C(COC(=O)c1ccc(Cl)nc1)c1ccc2c(c1)OCCO2,,"inconclusive: 10 µM [inhibitor, partial curve]"
Cc1cc(OCC(=O)N2CCc3ccccc3C2)c2c(-c3ccccc3)cc(=O)oc2c1,,"inconclusive: 39.8 µM [inhibitor, single point]"
CN1C=CC=C/C1=C1\SC(=S)N(c2ccccc2)C1=O,,"inconclusive: 17.8 µM [inhibitor, single point]"
O=Cc1ccc2noc(-c3ccc(Cl)cc3)c2c1,,"inconclusive: 17.8 µM [inhibitor, partial curve]"

Structure (SMILES),"activity, negative = inhibition",Potency
CC(C)(C)OC(=O)NCCCCC1=CC2=CC(=O)C(C)(OC(=O)c3cccs3)C(=O)C2=CO1 (stereo not drawn),,"inconclusive: 39.8 µM [inhibitor, partial curve]"
Cc1ccc(SCC(=O)c2ccc(CC(=O)O)s2)cc1,,"inconclusive: 14.1 µM [inhibitor, partial curve]"
Cc1ccc(C)c(NS(=O)(=O)c2ccc3c4c(cccc24)C(=O)N3)c1,,"inconclusive: 28.2 µM [inhibitor, partial curve]"
O=[N+]([O-])/C(C(Cl)=C(Cl)Cl)=C(/NC1CC1)Sc1ccccc1,,"inconclusive: 12.6 µM [inhibitor, partial curve]"
Cc1ccc(OCCCCN2CCCC(C)C2)c([N+](=O)[O-])c1 (stereo not drawn),inactive: -5.97%,
COc1ccccc1-c1c(C)nn2c(N3CCN(c4cccc(Cl)c4)CC3)cc(C)nc12,,"inconclusive: 31.6 µM [inhibitor, single point]"
Cc1c(NS(=O)(=O)c2cccc(C(=O)O)c2)c(=O)n(-c2ccccc2)n1C,inactive: -9.91%,
COC(=O)n1c(SC)nc2ccccc21,inactive: 6.85%,
COc1ccc(OC)c(NC(=O)c2cc3c(s2)-c2ccccc2SC3)c1,,"inconclusive: 14.1 µM [inhibitor, partial curve, poor fit]"
O=[N+]([O-])c1nn(-c2ccccc2)[n+]([O-])c1N1CCN(c2ccccc2F)CC1,,"inconclusive: 8.91 µM [inhibitor, full curve]"
CC(C)(C)NC(=O)C(c1ccncc1)N(C(=O)Cn1nnc(-c2ccc(F)cc2)n1)c1ccccc1F (stereo not drawn),,"inconclusive: 11.2 µM [inhibitor, partial curve]"
COc1cc(C(O)CO)ccc1O (stereo not drawn),inactive: -3.11%,
O=C(CSc1nc2ccccc2o1)N1CCN(c2ccc(Cl)cc2)CC1,,"inconclusive: 3.98 µM [inhibitor, partial curve]"
CCOc1cc(/C=C2/C(=O)ON=C2C)ccc1OCc1ccccc1F,,"inconclusive: 28.2 µM [inhibitor, partial curve]"
COc1ccc(C(=O)N/N=C/c2cc3ccccc3[nH]c2=S)cc1,,active: 3.98 µM
FC(F)(F)c1ccccc1NC(=S)N/N=C1\CC2CC=CC12 (stereo not drawn),inactive: 6.49%,
CCOc1cc(C2c3c(-c4ccccc4)n[nH]c3C(=O)N2c2ccc(C(=O)O)cc2)ccc1O (stereo not drawn),,"inconclusive: 35.5 µM [inhibitor, single point]"
CCOc1cccc2sc(Nc3nc4ccc(NC(C)=O)cc4s3)nc12,,"inconclusive: 1.78 µM [inhibitor, full curve]"
COc1ccc(NC(=O)Nc2cccs2)cc1Cl,,"inconclusive: 12.6 µM [inhibitor, partial curve]"
O=S(=O)(Nc1nc2ccccc2nc1Nc1cccc(S(=O)(=O)N2CCCCC2)c1)c1ccccc1,,"inconclusive: 28.2 µM [inhibitor, single point]"
COc1ccc(Cn2nnnc2C(c2cc3cc(C)ccc3[nH]c2=O)N2CCOCC2)cc1 (stereo not drawn),,"inconclusive: 6.31 µM [inhibitor, partial curve, poor fit]"
